# Reference: the supplement of paper PMC9446081
# The campaign covered roughly 39,000 compounds. About 220 (0.56%) showed activity. The list shows a part of the results.
# System: Escherichia coli K-12 BW25113
# Test: relative growth (OD600 normalised to plate interquartile mean) (fraction); higher = less growth inhibition, active = 0.2 or less
# Settings: 50 µM; LB; incubation time: overnight (16-24 h)
# 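Note: static incubation at 37 °C against the wild-type strain, values averaged over two biological replicates.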
row,SMILES,relative growth
1,COCCNC(=O)NC(=O)COC(=O)c1cccn1C,inactive: 0.992
2,C[C@H](CO)N1C[C@H](C)[C@H](CN(C)S(=O)(=O)c2ccc(Cl)cc2)Oc2ccc(NS(C)(=O)=O)cc2CC1=O,inactive: 1.04
3,CC(C)NC(=O)N(C)C[C@@H]1Oc2ccc(NC(=O)CCN3CCOCC3)cc2CC(=O)N([C@@H](C)CO)C[C@H]1C,inactive: 0.994
4,CCCCCCCCCC(=O)N[C@@H](Cc1c[nH]c2ccccc12)C(=O)N[C@H](CC(N)=O)C(=O)N[C@@H](CC(=O)O)C(=O)N[C@@H]1C(=O)NCC(=O)N[C@@H](CCCN)C(=O)N[C@@H](CC(=O)O)C(=O)N[C@H](C)C(=O)N[C@@H](CC(=O)O)C(=O)NCC(=O)N[C@H](CO)C(=O)N[C@@H]([C@H](C)CC(=O)O)C(=O)N[C@@H](CC(=O)c2ccccc2N)C(=O)O[C@@H]1C,inactive: 0.952
5,C[C@@H]1CN([C@@H](C)CO)C(=O)c2cc(-c3cccc(C(=O)N(C)C)c3)cnc2O[C@@H]1CN(C)S(=O)(=O)c1cccc(F)c1,inactive: 0.998
6,C[C@H]1CN([C@@H](C)CO)C(=O)c2cc(-c3cccnc3)cnc2O[C@@H]1CN(C)C(=O)Nc1ccc2c(c1)OCO2,inactive: 1
7,C[C@H](CO)N1C[C@H](C)[C@@H](CN(C)C(=O)C2CCOCC2)Oc2ncc(C#CCc3ccccc3)cc2C1=O,inactive: 0.994
8,COCC#Cc1ccc2c(c1)O[C@@H](CN(C)C(=O)C1CCOCC1)[C@@H](C)CN([C@H](C)CO)S2(=O)=O,inactive: 0.989
9,C[C@H](CO)N1C[C@H](C)[C@H](CN(C)S(=O)(=O)c2ccc(Cl)cc2)Oc2c(NC(=O)C3CC3)cccc2C1=O,inactive: 0.991
10,Cc1[nH]c(=O)[nH]c(=O)c1S(=O)(=O)N1CCC(C(=O)NCCC(C)C)CC1,inactive: 0.982
11,NC(=O)c1ccccc1C(N)=O,inactive: 0.986
12,C[C@H](CO)N1C[C@H](C)[C@@H](CN(C)S(=O)(=O)c2cn(C)cn2)Oc2ccc(NC(=O)Cc3ccccc3)cc2C1=O,inactive: 0.975
13,C[C@@H]1CN([C@@H](C)CO)C(=O)c2cccc(NC(=O)C3CCOCC3)c2O[C@H]1CN(C)S(=O)(=O)c1ccc(F)cc1,inactive: 1.03
14,C[C@H]1CN([C@@H](C)CO)C(=O)c2cccc(NC(=O)C3CC3)c2O[C@@H]1CN(C)Cc1ccc(Oc2ccccc2)cc1,inactive: 1.02
15,C[C@H](CO)N1C[C@H](C)[C@@H](CN(C)Cc2ccc(Oc3ccccc3)cc2)Oc2c(NS(=O)(=O)c3ccc(Cl)cc3)cccc2C1=O,inactive: 1.03
16,CO[C@@H]1CN(C)C(=O)c2ccc(NS(=O)(=O)CC(F)(F)F)cc2OC[C@H](C)N(Cc2nccs2)C[C@@H]1C,inactive: 0.983
17,COc1ccc(NC(=O)N(C)C[C@@H]2Oc3ccc(NC(=O)CCCCCC(=O)Nc4ccccc4N)cc3C(=O)N([C@@H](C)CO)C[C@@H]2C)cc1,inactive: 0.957
18,Cc1noc(C)c1S(=O)(=O)Nc1ccc2c(c1)C(=O)N([C@H](C)CO)C[C@H](C)[C@@H](CN(C)S(=O)(=O)c1cccs1)O2,inactive: 1
19,COc1ccc(NC(=O)Nc2ccc3c(c2)C(=O)N([C@H](C)CO)C[C@H](C)[C@H](CN(C)C(=O)Cc2ccccc2)OCCCC[C@@H](C)O3)cc1,inactive: 1.01

row,SMILES,relative growth
1,COCC#Cc1cnc2c(c1)C(=O)N([C@H](C)CO)C[C@@H](C)[C@@H](CN(C)C(C)=O)O2,inactive: 0.998
2,Cc1ccc(-c2cnc3c(c2)C(=O)N([C@H](C)CO)C[C@H](C)[C@@H](CN(C)C(=O)Cc2cccnc2)O3)cc1,inactive: 0.998
3,C[C@@H]1CCCCO[C@@H](CN(C)C(=O)Nc2cccc3ccccc23)[C@H](C)CN([C@H](C)CO)C(=O)c2cc(NS(=O)(=O)c3cn(C)cn3)ccc2O1,inactive: 0.994
4,CN1C2CCCC1CC(NC(=O)c1nn(C)c3ccccc13)C2.Cl (configuration not stated),inactive: 1.07
5,C[C@@H]1CN([C@H](C)CO)C(=O)c2cc(NS(=O)(=O)c3ccc(Cl)cc3)ccc2O[C@@H](C)CCCCO[C@@H]1CN(C)Cc1ccccc1,inactive: 0.965
6,C[C@H]1CN([C@@H](C)CO)S(=O)(=O)c2ccc(-c3cncnc3)cc2O[C@H]1CN(C)C(=O)C1CCCCC1,inactive: 0.985
7,NC(=O)CCNCc1ccccc1,inactive: 1.01
8,CN1CC(=O)N2C(Cc3c([nH]c4ccccc34)C2c2ccc3c(c2)OCO3)C1=O (configuration not stated),inactive: 1.13
9,C[C@@H]1CN([C@H](C)CO)S(=O)(=O)c2ccc(C#Cc3ccncc3)cc2O[C@H]1CN(C)C(=O)Nc1ccc2c(c1)OCO2,inactive: 1.02
10,C[C@@H]1CN([C@H](C)CO)C(=O)Cc2cc(NC(=O)Nc3ccc(C(F)(F)F)cc3)ccc2O[C@H]1CN(C)S(=O)(=O)c1ccc(Cl)cc1,inactive: 1.02
11,COc1ccc(S(=O)(=O)Nc2ccc3c(c2)CC(=O)N([C@@H](C)CO)C[C@H](C)[C@@H](CN(C)Cc2ccncc2)O3)cc1,inactive: 1.02
12,COc1cccc(NC(=O)N(C)C[C@@H]2Oc3ncc(C#Cc4ccncc4)cc3C(=O)N([C@@H](C)CO)C[C@@H]2C)c1,inactive: 0.979
13,CC1(C)OC(=O)C2(C(=O)O1)[C@@H](c1ccc(-c3cccc(Br)c3)cc1)CC(=O)C[C@H]2c1ccccc1,inactive: 1
14,C[C@H]1CC=CC[C@@H](c2ccc3c(c2)OCO3)NC(=O)[C@H](Cc2ccccc2)N(C)C(=O)c2ccccc2O1,inactive: 1.05
15,C[C@H]1CN([C@@H](C)CO)C(=O)Cc2cc(NS(=O)(=O)c3cn(C)cn3)ccc2O[C@@H]1CN(C)S(=O)(=O)c1cccs1,inactive: 0.997
16,COc1cc(C=CC(=O)N2CCC=CC2=O)cc(OC)c1OC,inactive: 1.09
17,C[C@@H]1CCCCO[C@H](CN(C)Cc2ccc(C(F)(F)F)cc2)[C@@H](C)CN([C@@H](C)CO)C(=O)c2cc(NC(=O)Nc3ccc4c(c3)OCO4)ccc2O1,inactive: 1.05
18,CCCSc1nc(N[C@@H]2C[C@H]2c2ccc(F)c(F)c2)c2nnn([C@@H]3C[C@H](OCCO)[C@@H](O)[C@H]3O)c2n1,inactive: 0.736
